# Assay results as given in PubChem BioAssay AID488969 (Vanderbilt High Throughput Screening Facility, 2010).
# The full ranking holds about 110,000 compounds; the median of “z-score” is about -0.1, and the highest 2% start at about 2. This is one part of the list. The source made the active and inactive calls.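 How the source made its calls: active means z-score in the third read window above 3 or below -3; inactive means the rest.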
# Molecular target: Metabotropic glutamate receptor 8 (Rattus norvegicus) (UniProt P70579)
# UniProt P70579, sequence (P70579 whole entry, looked up): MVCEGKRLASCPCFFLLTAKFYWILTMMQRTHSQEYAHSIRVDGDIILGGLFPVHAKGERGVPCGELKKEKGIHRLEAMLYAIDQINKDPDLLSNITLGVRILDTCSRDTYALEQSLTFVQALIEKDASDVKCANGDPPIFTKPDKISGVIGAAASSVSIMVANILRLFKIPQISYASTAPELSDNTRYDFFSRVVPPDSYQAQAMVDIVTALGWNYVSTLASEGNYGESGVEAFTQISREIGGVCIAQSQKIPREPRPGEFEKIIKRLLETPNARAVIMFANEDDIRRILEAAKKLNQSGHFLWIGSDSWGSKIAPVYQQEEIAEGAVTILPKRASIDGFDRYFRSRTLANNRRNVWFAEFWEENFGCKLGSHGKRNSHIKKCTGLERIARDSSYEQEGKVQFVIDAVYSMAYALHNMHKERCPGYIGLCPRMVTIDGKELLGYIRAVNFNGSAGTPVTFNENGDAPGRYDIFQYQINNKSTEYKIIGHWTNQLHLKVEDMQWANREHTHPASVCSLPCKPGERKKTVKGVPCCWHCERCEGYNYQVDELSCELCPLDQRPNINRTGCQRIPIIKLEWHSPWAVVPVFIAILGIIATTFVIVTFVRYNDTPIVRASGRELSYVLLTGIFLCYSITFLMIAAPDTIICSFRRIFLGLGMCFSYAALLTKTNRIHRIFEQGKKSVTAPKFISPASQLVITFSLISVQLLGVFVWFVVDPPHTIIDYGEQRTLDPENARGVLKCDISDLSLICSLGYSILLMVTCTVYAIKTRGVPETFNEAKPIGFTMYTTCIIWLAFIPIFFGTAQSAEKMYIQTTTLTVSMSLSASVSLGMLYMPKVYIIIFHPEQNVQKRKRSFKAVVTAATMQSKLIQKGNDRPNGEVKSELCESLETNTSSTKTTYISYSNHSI
# Assay: rat mGluR8 modulators via GIRK flux, primary screen, cell-based, thallium flux, HTS (AID 488969)
# Conditions: HEK293 rat mGluR8, GIRK (G protein-gated inwardly rectifying potassium channel) thallium flux, FluoZin2; at 10 µM; stronger effect = higher value; submaximal glutamate (EC20) added with thallium
row,SMILES,z-score
1,CCC1SC2=NCN(c3ccccc3)CN2C1=O (configuration not stated),-0.157
2,COC(=O)CC1COc2ccccc2N1C(=O)c1cccc(Cl)c1 (configuration not stated),-0.076
3,Cc1cc(C=O)c(C)n1-c1ccc(Oc2ccc([N+](=O)[O-])cn2)cc1,-0.148
4,COC(=O)c1[nH]c2cccc(OC)c2c1NC(=O)CN1CCOCC1,0.382
5,O=C(NCc1cccs1)C(=O)NCC1OCCCN1S(=O)(=O)c1ccccc1 (configuration not stated),-0.219
6,Cc1oc2ccc(O)cc2c1C(=O)c1ccc(Cl)cc1,-0.696
7,COc1ccc(N(C(=O)CNC(=O)c2ccco2)C(C(=O)NC2CCCCC2)c2ccco2)cc1 (configuration not stated),0.332
8,O=c1cc(NCc2ccccc2)c2ccccc2o1,-0.0485
9,O=C(NCCc1ccccn1)c1ccc(COc2ccccc2)o1,-0.191
10,COc1ccc(NC(=S)N(CCc2nc3cc(C)c(C)cc3[nH]2)Cc2cccnc2)cc1,0.0659
11,Cc1ccc(/C=C/S(=O)(=O)N2CCC(C(=O)O)CC2)cc1,-0.628
12,CN1C(=O)C(O)(C2OC(C)(C)CCC2=O)c2ccccc21 (configuration not stated),-0.0799
13,CCN(CC)S(=O)(=O)c1ccc(N2CCCC2)c(NS(=O)(=O)c2ccccc2)c1,-0.405
14,CCC(=O)Nc1ccc(Cl)c(NC(=O)c2ccc([N+](=O)[O-])cc2)c1,-0.0166
15,CCOc1ccc(Cl)cc1S(=O)(=O)n1cnc2ccccc21,0.0674
16,COC(=O)CC1=C(C(=O)OC)C(c2ccc3c(c2Cl)OCO3)C(C#N)=C(N)O1 (configuration not stated),-1.19
17,COc1cc2c(cc1OC)CN(Cc1nc3ccsc3c(=O)[nH]1)CC2,-0.379
18,COc1ccccc1NC(=O)Nc1ccc2c(c1)nnn2C,-0.194
19,N#CC1=C(S)N(c2ccccc2)C(c2ccc(-c3ccccc3Cl)o2)NC1=O (configuration not stated),-0.702
20,Nc1c(Cl)cc2c(c1Oc1ccccc1)C(=O)c1ccccc1C2=O,-1.52
21,COC(=O)c1ccc(N2C(=O)c3cc(N4CCOCC4)c([N+](=O)[O-])cc3C2=O)cc1,-0.238
22,CCCCC(=O)NC(NC(=O)CCCC)c1ccc(OCC(C)C)c(OC)c1,-0.277
23,O=C(COC(=O)CCc1ccc(S(=O)(=O)N2CCOCC2)cc1)Nc1ncc(C(F)(F)F)cc1Cl,-0.00567

row,SMILES,z-score
1,O=C(NC(=S)Nc1nc2ccccc2s1)c1ccco1,active: 8.72
2,NS(=O)(=O)c1ccc(N2N=C(c3ccccc3)CC2c2ccc(F)cc2)cc1 (configuration not stated),-0.361
3,COc1ccc(CCNc2nnc(C)c(=O)[nH]2)cc1OC,0.279
4,CCOC(=O)CC(NS(=O)(=O)c1ccc(NC(C)=O)cc1)c1ccc(OCC)cc1 (configuration not stated),1.12
5,Cc1ccc(OCC(=O)NN=C2c3ccccc3-c3ccccc32)cc1,-0.617
6,CC(=O)c1c(C)[nH]c(C(=O)N2CCN(c3ccc(F)cc3)CC2)c1C,-0.0203
7,NNC(=O)c1cc2ccccc2cc1O,0.846
8,O=C(CSc1ccc2nnc(-c3ccccc3)n2n1)N1CCN(c2ccccc2)CC1,-0.868
9,CCCCNC(=S)NNC(=O)CCn1nc(C)c(Br)c1C,0.0745
10,Cc1cc(NC(=O)COC(=O)c2cccc(S(=O)(=O)N3CCOCC3)c2)no1,0.324
11,Cc1cc(C)c(Nc2cc(S(=O)(=O)O)c(N)c3c2C(=O)c2ccccc2C3=O)c(C)c1,-0.54
12,S=C(NCCCn1ccnc1)NC1CCCCC1,0.091
13,CCc1ccccc1NC(=O)c1cc(-c2cccc(O)c2)on1,0.482
14,Cc1cc(C)nc(NC(=NCCc2c[nH]c3ccccc23)NC(=O)Nc2ccccc2)n1,-0.584
15,CCCCOc1ccc(C(=O)CCNC(C(=O)O)C(C)CC)cc1 (configuration not stated),0.301
16,O=C1NC2(CCCC2)N=C1c1ccc(F)cc1,-0.119
17,CC1CCN(C(=O)CSc2nncn2C)CC1,0.375
18,O=C(NCc1cccnc1)c1ccc(CN2CCc3ccccc3C2)cc1,-0.0622
19,CCN(CC)C(=O)COc1ccc2oc(C)c(C(=O)OC)c2c1,active: 3.23
20,CCCCN1C(=O)c2ccccc2C1C(=O)NC1CCCC1 (configuration not stated),active: 3.2
21,O=C(Nc1cccn(Cc2c(Cl)cccc2Cl)c1=O)c1ccccc1Cl,-0.112
22,Cc1cc(Cl)ccc1NC(=O)CSc1nnc(Cc2cccs2)n1Cc1ccco1,-0.988
23,Cc1nc(CN2CCN(C(=O)c3ccc(C(C)(C)C)cc3)CC2)cs1,0.36

row,SMILES,z-score
1,Cc1cccc(NC(=O)c2ccc(OC3CSC3)cc2)c1,-0.335
2,COc1ccc(C2N(c3ccc(OC)cc3)C(=O)C3CCCN32)cc1 (configuration not stated),-0.229
3,O=C1NN(c2ccccc2)C(=O)/C1=C/c1cccs1,-0.409
4,Cc1nc(Nc2ccc(F)cc2)[nH]c(=O)c1CCC(C)C,-0.00139
5,CC(C)(Oc1ccc(Cl)cc1)C(=O)Nc1cccnc1,0.239
6,CC/C(=N\NS(C)(=O)=O)c1ccccc1,0.273
7,CC[n+]1c(/C=C(\C)Nc2ccccc2)sc2ccccc21,-0.486
8,Cc1ccc2nc(NCCCO)nc(-c3ccccc3)c2c1,-0.775
9,COc1ccc(C)cc1S(=O)(=O)N1CCN(c2cccc(C(F)(F)F)c2)CC1,-0.488
10,Cc1c(Cl)cccc1Nc1nc(N)nc(CSc2ncccn2)n1,-0.291
11,C1=C(c2ccccc2)Nc2nnnn2C1c1cccs1 (configuration not stated),-0.104
12,Cc1cccc(NC(=O)CSc2nnc(-c3ccc(S(=O)(=O)N4CCOCC4)cc3)n2C)c1,1.74
13,O=C(Cn1cnc2c(nnn2Cc2ccccc2F)c1=O)OCc1ccccc1,-1.07
14,Cc1nn(CCc2n[nH]c(=S)n2-c2ccc(F)c(Cl)c2)c(C)c1[N+](=O)[O-],-0.0853
15,CCCS(=O)(=O)N1CCN(C(=O)CCC2CCCC2)CC1,0.237
16,O=C(c1cnc2n(c1=O)CCS2)N1CCCc2ccccc21,-0.0995
17,CC(C)COC(=O)Nc1nnc(SCc2ccccc2F)s1,-0.083
18,CC(C)NC(=S)N1CCN(S(C)(=O)=O)CC1,-0.252
19,COc1ccc(NC2=C(c3ccc(OC)cc3)C(=O)c3ccccc32)cc1,-0.135
20,CCCC(C(=O)NC1CCCCC1)N(CC1CCCO1)C(=O)CNS(=O)(=O)c1ccc(F)cc1 (configuration not stated),-0.514
21,Nc1nc(C2C(=O)CCCC2=O)cs1,0.841
22,CC(=O)COC(=O)CCc1nc2ccccc2[nH]c1=O,-0.286
23,Cc1nn(-c2ccccc2)c(C)c1C(=O)OCC(=O)NCc1ccco1,-1.38

row,SMILES,z-score
1,Fc1cccc(Cl)c1CSc1nnnn1-c1ccc2c(c1)OCO2,1.06
2,CS(=O)(=O)N1N=C(c2ccccc2)CC1c1ccc2nccnc2c1 (configuration not stated),0.159
3,CS(=O)(=O)N1CCN(C(=O)c2c(F)cccc2F)CC1,0.029
4,COc1ccccc1Oc1ccccc1C(=O)O,0.0102
5,CCCCCCN1CC(C(=O)OCC)C(=O)C1=O (configuration not stated),-0.114
6,c1ccc2c(c1)oc1c(NCCCn3ccnc3)ncnc12,-0.0789
7,COc1ccc(CCNC(=O)Cn2cc(C(F)(F)F)cc(Cl)c2=O)cc1OC,-0.175
8,O=C(CCNS(=O)(=O)c1cccc2nsnc12)Nc1ccc2c(c1)OCCO2,-1.18
9,O=C(Nc1ccc2c(c1)CCC2)C1COc2ccccc2O1 (configuration not stated),0.9
10,Cc1cc(NC(=O)CN2CCN(S(=O)(=O)c3ccc(Cl)cc3)CC2)no1,0.194
11,CCCCNC(=O)CCn1c(=O)c2ccccc2n(Cc2cc(C)ccc2C)c1=O,-0.588
12,CN1C(=S)SC(/[N+]([O-])=C\c2cccs2)C1(C)C (configuration not stated),-0.0661
13,COC(=O)NCCOc1cc(C)ccc1C,0.661
14,Cc1cc(SCC(=O)c2cccs2)n2nc(C)c(-c3ccccc3)c2n1,-0.14
15,Cc1[nH]c2ccccc2c1CC(=O)O,-0.275
16,COc1ccc(N2CCN(C(c3cccs3)C(C)NC(=O)c3ccco3)CC2)cc1 (configuration not stated),-0.0565
17,CC(C)c1ccc(/C=N/n2nnnc2Nc2ccccc2)cc1,-0.0719
18,CC(C)NC(=O)NC(=O)COC(=O)c1ccc(OC(F)(F)F)cc1,-0.107
19,Cc1cc(OC(=O)N2CCCCC2)cc(C)c1Cl,-0.184
20,COc1ccc(NC(=O)c2cc(-c3cccnc3)nc3c(C)c(C)ccc23)c(OC)c1,-0.0817
21,CCc1cccc2c(C(=O)COC(=O)c3ccc(O)cc3)c[nH]c12,-0.12
22,Cc1ccc(-n2c(C)cc(C(=O)COc3cccnc3[N+](=O)[O-])c2C)cc1,-0.132
23,Cc1cc(=O)[nH]c(=S)n1-c1ccccc1,-0.0166

row,SMILES,z-score
1,Cc1ccc(CSc2nc3ccncc3[nH]2)cc1,2.46
2,CC1=NN(c2ccccc2)C(=O)/C1=C/c1cc2cc(C)ccc2nc1N1CCCCC1,-0.251
3,Cc1ccccc1C(=O)N1CCCN(C(=O)c2ccccc2C)CC1,0.249
4,Cc1ccc(N2CC(C(=O)N3CCc4ccccc4C3)CC2=O)cc1 (configuration not stated),-0.35
5,CC(C)N(C(=O)CSc1nnc(NC(=O)C2CCC2)s1)C(C)C,0.0659
6,CCc1c(C(=O)Nc2cc(C)ccc2OC)[nH]c(C)c1C(C)=O,-0.151
7,O=[N+]([O-])c1cccc(/C=N/n2cnnc2)c1O,0.0535
8,Cc1ccc(OCC(=O)Nc2cc(S(=O)(=O)N3CCCCC3)ccc2C)c([N+](=O)[O-])n1,-0.377
9,O=C(Nc1nc(-c2ccccc2)cs1)C1c2ccccc2Oc2ccccc21,0.57
10,Cc1cc(C)n(-c2nc3c(c(=O)[nH]c(=O)n3C)n2CC(O)COc2ccccc2)n1 (configuration not stated),-0.429
11,Cc1cc(Cl)c(S(=O)(=O)N2CCN(c3cccc(C)c3C)CC2)cc1OCC(N)=O,0.0105
12,Cc1ccc2cc(CN(Cc3ccco3)C(=O)c3ccccc3)c(=O)[nH]c2c1C,-0.385
13,CNc1nc2c(c(=O)n(C)c(=O)n2C)n1Cc1ccccc1,0.359
14,CCc1ccc(N2C(=O)c3ccc4c5c(ccc(c35)C2=O)CC4)cc1,-0.587
15,Cn1c(N2CCC(C(N)=O)CC2)nc2c1c(=O)n(Cc1ccc(Br)cc1)c(=O)n2C,-0.445
16,Cc1ccc(S(=O)(=O)N2CC=C(c3ccc(F)cc3)CC2)cc1,-0.212
17,O=C(Cc1cccs1)N1CCCC(c2nc3c(nnn3Cc3ccc(F)cc3)c(=O)[nH]2)C1 (configuration not stated),-0.894
18,Cc1noc(/C=C/N(C)C)c1S(=O)(=O)N1CCCC(C(=O)NCc2ccc(F)cc2)C1 (configuration not stated),2.21
19,CC(C)CC(=O)NN1CCCCC1,-0.14
20,CC(=O)c1cccc(N(CC(=O)Nc2ccc(F)cc2)S(C)(=O)=O)c1,2.52
